Consider one molecule from paper PMC3805550, “A Molecular Evolution Approach to Study the Roles of Tropomyosin in Fission Yeast” (PLoS ONE, 2013).

The assay addresses F-actin from chicken pectoral (skeletal) muscle (chicken, UniProt P68139). Put plainly: co-sedimentation; 5 uM F-actin with 0.1-6 uM AS-Cdc8p, 20 mM MOPS pH 7.0, 150 mM NaCl, 2 mM MgCl2, 20 C, 60,000 rpm 30 min; pellets and supernatants on SDS-PAGE, densitometry; Hill equation fit, apparent constant (Kapp). Conditions: both partners purified.

B1: AS-Cdc8p D16A.K30A (natural protein)
chain: not shown
notes: AlaSer extension; primer introduces Met-Ala-Ser at the 5' end, the Met is cleaved after expression in E. coli; Cdc8p, tropomyosin of Schizosaccharomyces pombe, 161 residues; subcloned with primers at the 5' end and the 3' end of cdc8; measured mass 19020 (expected 19021); residue numbers count on Cdc8p without the AS extension; also called AS-16.30; AS-Cdc8p-16.30; source: E. coli BL21(DE3) …
As to B1, the Ka is 2.6e+06 M⁻¹.
